Laboratory results as given in ChEMBL document CHEMBL1201862, “PubChem BioAssay data set” (2004).
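Tested at 5 concentrations; 48 h exposure; 96-well plates; endpoints linearly interpolated, else capped at highest concentration. GI50 = concentration required for 50% inhibition of growth.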 Activity calls are given as the source filed them. Rule as the data show it: active = GI50 up to about 1.1 µM and inactive = higher.

Each compound was assayed on NCI-H322M (assay: inhibition of tumour cell growth, NCI panel, 48 h).
With `O=C(NCCO)c1ccc(Cl)cc1` the GI50 was inactive: > 100 µM.
`Cc1[nH]c2c(C)ccc(C)c2c1CC(=O)O` was tested, and the GI50 was inactive: 79.6 µM.
`Sc1nnc(COc2ccc(Cl)cc2)n1-c1ccccc1` was tested, and the GI50 was inactive: > 100 µM.
`C[C@@](Br)(C(=O)O)[C@H](Br)C(=O)O` was tested, and the GI50 was inactive: 81.5 µM.
In the case of `O=C(O)CNCCc1ccccc1`, the GI50 is reported as inactive: > 100 µM.
With `COc1ccccc1N=C(S)Nc1ccccn1` the GI50 was inactive: > 100 µM.
With `C[C@]12CC[C@@H]3c4cc(OCC(F)(F)F)c(O)cc4C(=O)C[C@H]3[C@@H]1CC[C@@H]2O` the GI50 was inactive: 37.5 µM.
In the case of `COc1cc2c3cc1Oc1cc(ccc1O)C[C@@H]1c4c(cc(OC)c(O)c4Oc4ccc(cc4)C[C@@H]3N(C)CC2)CC[N+]1(C)C`, the GI50 is reported as inactive: > 100 µM.
For `O=C(O)CSc1ncccc1[N+](=O)[O-]`, the GI50 was inactive: > 100 µM.
For `NC1CC(=O)c2c(I)sc(I)c21` (stereo unspecified), the GI50 was inactive: 23.1 µM.
`Cc1cccc(/C=N/NC(=S)Nc2ccc(Cl)cc2)n1` was tested, and the GI50 was inactive: 5.43 µM.
In the case of `NC(=O)NC(=O)Nc1ccc(Br)cc1`, the GI50 is reported as inactive: > 27.5 µM.
With `COc1ccc(-n2c(Cn3nnc(-c4cccnc4)n3)nn(C3OC(COC(=O)c4ccccc4)C(OC(=O)c4ccccc4)C3OC(=O)c3ccccc3)c2=S)cc1` (stereo unspecified) the GI50 was inactive: > 100 µM.
With `CCOC(=O)c1ccc(NC2Oc3cc4c(cc3C(c3cc(OC)c(OC)c(OC)c3)C2C)OCO4)cc1` (stereo unspecified) the GI50 was active: 0.543 µM.
For `COC(=O)Cc1c([C@H]2[C@H](CC(=O)OC)c3ccccc3N2C(=O)C(F)(F)F)[nH]c2ccccc12`, the GI50 was inactive: > 100 µM.
For `Clc1ccccc1C1SCc2nc3ccccc3n21` (stereo unspecified), the GI50 was inactive: 53.6 µM.
With `CN1C(=O)CN(NC(=O)C2=C(O)c3ccc(Br)cc3S(=O)(=O)N2)C1=S` the GI50 was inactive: > 100 µM.
For `CC(=O)c1c(=O)n(-c2ccc(C)cc2)c(O)c2c(N)n[nH]c12`, the GI50 was inactive: > 100 µM.
In the case of `c1cc(Sc2nc(Sc3ccncc3)nc(Sc3ccncc3)n2)ccn1`, the GI50 is reported as inactive: > 100 µM.
In the case of `CCOC(=O)/C=C(\C(=O)OCC)n1ccc(N)nc1=O`, the GI50 is reported as inactive: > 100 µM.
`Cn1c(=O)oc2cc(C(=S)N3CCC(Cc4ccccc4)CC3)ccc21` was tested, and the GI50 was inactive: > 100 µM.
For `CC(=O)Nc1ccc2cc3[nH]c4cc(NC(C)=O)ccc4c3nc2c1`, the GI50 was inactive: > 100 µM.
For `CCCCCCCCCCCCCCCCCCNC(=O)C(N)Cc1ccc(OCc2ccccc2)cn1` (stereo unspecified), the GI50 was inactive: 20.6 µM.
`CCCCCCCCCCCCC(=O)OC(c1cnco1)c1nc(C(O)CC(O)C(O)C(C)O)co1` (stereo unspecified) was tested, and the GI50 was active: 0.893 µM.
In the case of `O=C(c1ccco1)C1CC(c2ccc3ccccc3c2O)=NN1c1ccc([N+](=O)[O-])cc1[N+](=O)[O-]` (stereo unspecified), the GI50 is reported as inactive: 22.6 µM.
In the case of `CCOC(=O)C1(C(=O)OCC)CSC1`, the GI50 is reported as inactive: 3.03 µM.
`CCCCCC(=O)OCC(=O)[C@H]1[C@H](C)C[C@H]2[C@@H]3C[C@H](F)C4=C/C(=N/OC(=O)c5cccc6c(=O)c7ccccc7[nH]c56)C=C[C@]4(C)[C@H]3[C@@H](O)C[C@@]21C` was tested, and the GI50 was inactive: 41.7 µM.
For `COC(=O)Nc1nc2cc(NS(=O)(=O)c3ccc(Cl)cc3)ccc2[nH]1`, the GI50 was inactive: 8 µM.
In the case of `CCOP(=O)(OCC)[C@]12C[C@@H](C)C=C[C@H]1COC2=O`, the GI50 is reported as inactive: > 100 µM.
`CC(=O)Oc1ccc2cc(-c3ccc(OC(C)=O)c(OC(C)=O)c3)c(=O)oc2c1` was tested, and the GI50 was inactive: 77.8 µM.
`O=C1CSc2nc3ccccc3n2/C=N\N1` was tested, and the GI50 was inactive: > 100 µM.
In the case of `O=C1N/N=C\c2ccc(cc2)OCc2cccc(n2)COc2ccc(cc2)/C=N\NC1=O`, the GI50 is reported as inactive: > 25 µM.
For `Cc1cc(-c2ccc(C(=O)O)[nH]2)on1`, the GI50 was inactive: 62.8 µM.
For `O=C(O)CN1CCSc2ccccc2CN(CC(=O)O)CCSc2ccccc2C1`, the GI50 was inactive: > 100 µM.
`CCOC(=O)C12CC1(C(=O)OCC)C1CCC2C1` (stereo unspecified) was tested, and the GI50 was inactive: > 100 µM.
In the case of `NC(=O)NNC/C(Cl)=C(\Cl)C(=O)O`, the GI50 is reported as inactive: > 100 µM.
`CCOC(=O)CN1C(=O)NC(C)(c2ccccc2)C1=O` (stereo unspecified) was tested, and the GI50 was inactive: > 100 µM.
With `CC(=O)OCC1OC(c2nc3ccccc3s2)=CC(OC(C)=O)C1OC(C)=O` (stereo unspecified) the GI50 was inactive: > 100 µM.
In the case of `NS(=O)(=O)c1ccc(NCc2nc3ccccc3[nH]2)cc1`, the GI50 is reported as inactive: > 100 µM.
In the case of `N#Cc1c(NC(=S)Nc2ccc(Cl)cc2)sc2c1CCCC2`, the GI50 is reported as inactive: > 100 µM.
For `COc1ccc2c(cnc3c4cc(OC)c(OC)cc4ccc23)c1`, the GI50 was inactive: > 100 µM.
For `C=C(C(=O)C(=O)Oc1ccc(Cl)cc1)C(=O)c1ccc(C)cc1`, the GI50 was inactive: > 100 µM.
`COc1cc2c(OC)cc1CSCc1sc(C)c(c1Br)CSC2` was tested, and the GI50 was inactive: > 100 µM.
With `c1ccc2c(c1)CCc1cc3cc4c(nc3nc1-2)-c1ccccc1CC4` the GI50 was inactive: > 100 µM.
With `C/C(CC(=O)Nc1cc(Cl)c(Cl)cc1Cl)=N\NC(N)=O` the GI50 was inactive: > 100 µM.
`CCOC(=O)C12CCC(=O)N1N(C)c1ncccc1N2` (stereo unspecified) was tested, and the GI50 was inactive: > 100 µM.
In the case of `CCCCCCCC(=O)OC[C@H](C[As](=O)(O)O)OC(=O)CCCCCCC`, the GI50 is reported as inactive: 14.1 µM.
In the case of `CCC(C#N)NCc1cccc(CNC(C#N)CC)c1` (stereo unspecified), the GI50 is reported as inactive: > 100 µM.
`CN(C)Cc1[nH]c2ccccc2c1C(=O)c1ccccc1` was tested, and the GI50 was inactive: > 100 µM.
`CN(C)c1n/c(=N/Cc2ccccc2)ss1` was tested, and the GI50 was inactive: > 10 µM.
With `CC1CCC2(CC1)NN=c1s/c(=C\c3ccc(O)cc3)c(=O)n1N2` (stereo unspecified) the GI50 was inactive: > 100 µM.
`O=C(c1ccccc1)n1cc(-c2ccccc2)c2c(=O)nc[nH]c21` was tested, and the GI50 was inactive: > 100 µM.
With `O=C1[C@@H]2C(c3ccncc3)=NO[C@@H]2C(=O)N1c1ccc(Cc2ccc(N3C(=O)[C@H]4C(c5ccncc5)=NO[C@H]4C3=O)cc2)cc1` the GI50 was inactive: > 100 µM.
In the case of `COC(=O)c1cc(/C=C/C(=O)Cc2ccccc2)cn1S(=O)(=O)c1ccccc1`, the GI50 is reported as inactive: > 100 µM.
With `COc1cc2c3c(c1O)-c1c(ccc(OC)c1OC)CC3N(C)CC2` (stereo unspecified) the GI50 was inactive: > 100 µM.
In the case of `CCOC(=O)C1(Br)S(=O)(=O)OCCOS1(=O)=O`, the GI50 is reported as inactive: > 100 µM.
With `O=c1cccccc1NCCCNc1cccccc1=O` the GI50 was inactive: > 100 µM.
For `O=C(NCCO)c1ccc([N+](=O)[O-])cc1`, the GI50 was inactive: > 100 µM.
With `NCCCCNCCCN1CCOC1=O` the GI50 was inactive: > 100 µM.
In the case of `N#Cc1c(Nc2ccc(F)cc2)[n+]([O-])c2ccc(Cl)cc2[n+]1[O-]`, the GI50 is reported as inactive: 55 µM.
`CSC1=C(C(=O)N(COCC[Si](C)(C)C)c2ccccc2Br)CCC(C(C)(C)C)C1` (stereo unspecified) was tested, and the GI50 was inactive: 22.5 µM.
For `O=CNC(Cc1c[nH]cn1)C(=O)O` (stereo unspecified), the GI50 was inactive: > 100 µM.
With `CCCCCC/C=C\CCCCCCCCCc1c(O)c(OC)cc(O)c1CN(C)C` the GI50 was inactive: 16.2 µM.
In the case of `COc1ccc(NC(=O)/C(=N/NC(N)=S)C2C(=O)NC(=S)NC2=O)c(OC)c1`, the GI50 is reported as inactive: > 100 µM.
In the case of `CC(=O)OCC(C)C1=C(O)C(=O)C2(C)C/C=C(/C)CC/C=C(\C)CCC(O)C(C)CCC12` (stereo unspecified), the GI50 is reported as inactive: 16.8 µM.
With `O=C(O)C1(Cc2ccc3c(c2)CCC3)Cc2cc3c(cc2C1)CCC3` the GI50 was inactive: > 100 µM.
For `O=C(N/C(=C\c1ccccc1)c1nc2ccccc2c(=O)o1)c1ccccc1`, the GI50 was inactive: > 100 µM.
With `CCOC(=O)CCC(NC(=O)c1ccc(Nc2nc3cc(C(F)(F)F)ccc3nc2-c2ccccc2)cc1)C(=O)OCC` (stereo unspecified) the GI50 was inactive: 23.6 µM.
In the case of `OC/C=C(\I)CCCOCOCc1ccccc1`, the GI50 is reported as inactive: > 100 µM.
`N=C(N)c1ccc(C(NC(=O)CNS(=O)(=O)c2ccc3ccccc3c2)P(=O)(Oc2ccccc2)Oc2ccccc2)cc1` (stereo unspecified) was tested, and the GI50 was inactive: 39.3 µM.
For `O=C1C2=C(C3=NCCc4c[nH]c1c43)c1c(Br)cc(Br)cc1CCN2`, the GI50 was inactive: 1.53 µM.
With `COC(=O)/C=C1/CCC(C(=O)OC)N1` (stereo unspecified) the GI50 was inactive: > 100 µM.
In the case of `N#CC1CNC(N)NC1N` (stereo unspecified), the GI50 is reported as inactive: > 100 µM.
For `COc1ccc(C2C=C(c3ccc4c(c3)OCO4)Oc3c2c(=O)oc2ccccc32)cc1OC` (stereo unspecified), the GI50 was active: 0.706 µM.
`CS(=O)(=O)c1n[nH]c2nc(O)nc(O)c12` was tested, and the GI50 was inactive: > 10 µM.
In the case of `CC(=O)OCc1c(O)nc2c(c1O)-c1ccccc1CC2`, the GI50 is reported as inactive: 160 µM.
With `C#CCSc1cnc2ccccc2c1Sc1c[nH]c2ccccc2c1=O` the GI50 was inactive: 19.9 µM.
With `O=C1CSSCC(=O)Nc2ccccc2N1` the GI50 was inactive: > 100 µM.
With `C/C(=N\Nc1nc2ccccc2n1C)c1ccncn1` the GI50 was active: 0.191 µM.
With `Cn1cnc([N+](=O)[O-])c1Sc1nnc(C(F)(F)F)n1C` the GI50 was inactive: > 100 µM.
For `N#Cc1nc(CCc2nc(C#N)c(N)o2)oc1N`, the GI50 was inactive: > 10 µM.
With `O=C(c1ccccc1)N1CCN(C(=S)N(C(=O)c2ccccc2)c2ccccc2)C1=S` the GI50 was inactive: 13.1 µM.
In the case of `CCc1cccc(NC(=O)c2cc(/C=C/c3ccccc3)nc(S)n2)c1`, the GI50 is reported as inactive: > 100 µM.
With `CC(C)(C)OC(=O)NC(Cc1ccccc1)C(=S)N1CCCC1` (stereo unspecified) the GI50 was inactive: > 100 µM.
In the case of `Nc1nc(SC/C=C/c2ccccc2)c2[nH]cnc2n1`, the GI50 is reported as inactive: > 100 µM.
`N#Cc1ccc(C2SCc3nc4ccccc4n32)cc1` (stereo unspecified) was tested, and the GI50 was inactive: > 100 µM.
With `COc1ccc(-c2nc(-c3cnccn3)n(Cc3ccccc3)n2)cc1` the GI50 was inactive: > 100 µM.
In the case of `N#CC(C(=O)CCC(=O)Nc1ccc(Cl)c(Cl)c1)c1ccccc1` (stereo unspecified), the GI50 is reported as inactive: > 100 µM.
With `COc1cc(C2c3[nH]c4ccccc4c3[C@@H](Nc3ccc(F)cc3)[C@H]3COC(=O)N23)cc(OC)c1O` (stereo partly specified) the GI50 was inactive: 7.4 µM.
In the case of `CCOC(=O)C1C=C2O[C@@H]3OC4(CCCCC4)O[C@@H]3C2[C@H]2C(=O)C=CC(=O)[C@@]12C(=O)OC` (stereo partly specified), the GI50 is reported as inactive: 17 µM.
In the case of `CCC(C)C1NC(=O)C(NC(=O)C(CC(C)C)N(C)C(=O)[C@@H]2C=CCN2C(=O)[C@H](C)O)C(C)OC(=O)[C@H](Cc2ccc(OC)cc2)N(C)C(=O)[C@@H]2CCCN2C(=O)[C@H](CC(C)C)NC(=O)C(C)C(=O)[C@H](C(C)C)OC(=O)CC1O` (stereo partly specified), the GI50 is reported as active: 0.00344 µM.
With `COc1ccc(C2C3C(=O)C=CC(=O)C3[C@@H]2C)cc1OC` (stereo partly specified) the GI50 was inactive: > 100 µM.
For `COc1ccc(/C=C2\CCCCCC2=O)cc1`, the GI50 was inactive: > 100 µM.
`COC1=C2C=[N+](C)C3C(=C2C=CC1OC)Cc1cc2c(cc13)OCO2` (stereo unspecified) was tested, and the GI50 was inactive: 14.7 µM.
In the case of `O=CN/C=C/c1ccccc1O`, the GI50 is reported as inactive: > 100 µM.
`Nc1ncnc2c1ncn2C1C=C(CO)C(O)C1O` (stereo unspecified) was tested, and the GI50 was inactive: 6.44 µM.
